# Data from PubChem BioAssay AID504332 (National Center for Advancing Translational Sciences (NCATS), 2011).
# The whole screen tested about 350,000 compounds, of which about 31,000 (8.9%) were called active. Inconclusive results, whose numbers are uncertain, are shown with a selection of clear calls. Calls follow the shape of the dose curve; as a rule, active = well fitted inhibition curve with a large enough effect; inconclusive = small, poorly fitted or top-dose-only effect; inactive = no such curve, though single readings can be large or run the other way. Potencies of inconclusive entries are doubtful fits and often do not repeat.
# Biological target: Histone-lysine N-methyltransferase EHMT2 (Homo sapiens) (UniProt Q96KQ7)
# Test: qHTS Assay for Inhibitors of Histone Lysine Methyltransferase G9a; also: nearly all actives have a fitted effect of over 75% in size
# Conditions: G9a H3K9 monomethylation, AlphaScreen, 2 h; activity, negative = inhibition: at 59 µM (top of the series) unless noted
# How it was run: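 AlphaScreen read-out: biotin-H3K9 peptide (500 nM) methylation by 20 nM enzyme with 20 uM SAM, 2 h at room temperature after 15 min compound preincubation; anti-monomethyl H3K9 antibody plus donor/acceptor beads, 10 min dark.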
# % is scaled to controls: 0 for no effect and ±100 for the full control effect; potency is read from the fitted curve at half-maximal effect; tags tell the direction and shape of the fitted curve.
# Sequence of UniProt Q96KQ7 (Q96KQ7 whole entry, looked up): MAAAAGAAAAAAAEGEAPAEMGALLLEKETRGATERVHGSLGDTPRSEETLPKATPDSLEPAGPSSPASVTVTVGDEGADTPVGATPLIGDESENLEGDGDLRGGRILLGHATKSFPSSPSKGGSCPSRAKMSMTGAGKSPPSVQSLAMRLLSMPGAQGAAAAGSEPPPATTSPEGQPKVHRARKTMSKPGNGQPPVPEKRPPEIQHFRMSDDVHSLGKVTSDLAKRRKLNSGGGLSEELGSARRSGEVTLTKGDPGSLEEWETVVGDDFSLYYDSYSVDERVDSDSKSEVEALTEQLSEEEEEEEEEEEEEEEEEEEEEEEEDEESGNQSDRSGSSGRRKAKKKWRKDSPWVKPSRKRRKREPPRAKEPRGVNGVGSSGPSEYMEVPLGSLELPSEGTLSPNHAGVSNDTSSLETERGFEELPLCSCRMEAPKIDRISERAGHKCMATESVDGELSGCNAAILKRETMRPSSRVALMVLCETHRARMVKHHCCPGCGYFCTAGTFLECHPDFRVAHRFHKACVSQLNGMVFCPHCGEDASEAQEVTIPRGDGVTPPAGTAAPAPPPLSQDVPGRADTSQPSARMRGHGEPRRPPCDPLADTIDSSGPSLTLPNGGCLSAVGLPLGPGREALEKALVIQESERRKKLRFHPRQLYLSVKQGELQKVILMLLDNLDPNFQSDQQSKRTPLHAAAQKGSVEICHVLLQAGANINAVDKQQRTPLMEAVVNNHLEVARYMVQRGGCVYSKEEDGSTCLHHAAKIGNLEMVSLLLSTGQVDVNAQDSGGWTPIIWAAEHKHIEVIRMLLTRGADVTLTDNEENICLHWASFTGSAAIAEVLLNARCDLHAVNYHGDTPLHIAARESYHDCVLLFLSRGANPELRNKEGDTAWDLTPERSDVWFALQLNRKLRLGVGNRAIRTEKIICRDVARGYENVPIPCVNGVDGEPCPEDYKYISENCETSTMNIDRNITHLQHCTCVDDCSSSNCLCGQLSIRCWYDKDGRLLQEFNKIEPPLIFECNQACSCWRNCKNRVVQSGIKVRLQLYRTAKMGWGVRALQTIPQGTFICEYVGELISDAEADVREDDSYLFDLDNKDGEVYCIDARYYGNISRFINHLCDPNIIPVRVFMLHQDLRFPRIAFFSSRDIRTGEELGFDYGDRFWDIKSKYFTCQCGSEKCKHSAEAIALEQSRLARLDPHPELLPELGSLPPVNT
SMILES,Potency,"activity, negative = inhibition"
CCCCN(CCCC)CC(O)Cn1cc(/C=C/C(=O)c2ccccc2)c2ccccc21 (stereo unspecified),"inconclusive: 25.1 µM [inhibitor, partial curve, poor fit]",
CC(C)CN1C(Nc2ccccc2)=NC[C@@H]1C,"inconclusive: 89.1 µM [inhibitor, single point]",
CCN(CC)C(=O)C1CCCN(C(=O)c2cc(COc3ccc4ncccc4c3)on2)C1 (stereo unspecified),"inconclusive: 89.1 µM [inhibitor, single point]",
COc1ccc(CNCC2COc3ccccc3O2)cc1 (stereo unspecified),active: 8.91 µM,
COc1ccc(C(=O)NC2=Nc3ccccc3N=C(C)C2c2ccccc2)cc1 (stereo unspecified),,inconclusive: -67.3% [inhibitor]
CCOc1ccc(-c2nc(C#N)c(NCC3CCCO3)o2)cc1 (stereo unspecified),,inactive: -3%
Cc1ccc(NC(=O)CCN2C(=O)C3CCCCC3C2=O)cc1[N+](=O)[O-] (stereo unspecified),,inactive: -11.4% [at 102 µM]
CC(C)C(C(=O)Nc1ncn[nH]1)N1C(=O)c2ccccc2C1=O (stereo unspecified),"inconclusive: 2.82 µM [inhibitor, partial curve, poor fit]",
O=C(O)c1cccc(NC(=S)NC(=O)c2ccc3ccccc3c2)c1,active: 56.2 µM,
CCCCC(CC)CNC(=O)CCCn1c(=O)[nH]c2ccsc2c1=O (stereo unspecified),,inactive: -40.7%
Cc1ccc(OCc2cnc(Cl)s2)c(C)c1,,inactive: -4.34% [at 102 µM]
C=CCSc1nnc(-c2cc(Br)ccc2N)c(=O)[nH]1,"inconclusive: 89.1 µM [inhibitor, single point]",
O=C(Nc1ccc2c(c1)OCO2)C1Cc2ccccc2CN1S(=O)(=O)c1cccs1 (stereo unspecified),,inactive: -37.2% [at 102 µM]
CCOC(=O)c1ccc(S(=O)(=O)NCC(c2ccc(N(C)C)cc2)c2c[nH]c3ccccc23)cc1 (stereo unspecified),"inconclusive: 1.41 µM [inhibitor, full curve, poor fit]",
CCN1CCN(c2c(S(=O)(=O)c3ccc(C)c(C)c3)cnc3cc(OC)c(OC)cc23)CC1,,inactive: -7.03%
CCCCOC(=O)c1c(C)oc2ccc(NS(=O)(=O)c3ccc4c5c(cccc35)C(=O)N4)cc12,"inconclusive: 20 µM [inhibitor, single point]",
O=C(c1cc(-c2ccccn2)nc2ccc(Cl)cc12)N1CCN(CCc2ccccc2)CC1,,inactive: 5.53%
CC(=O)C1=NOC2C(=O)N(c3ccc(Cl)cc3)C(=O)C12 (stereo unspecified),"inconclusive: 31.6 µM [inhibitor, partial curve, poor fit]",
O=C(COc1ccc2c(c1)OCO2)Nc1ccccc1F,"inconclusive: 70.8 µM [inhibitor, partial curve, poor fit]",
CCOc1cc(CNc2ccc(O)cc2)ccc1OCc1ccc(Cl)cc1,"inconclusive: 11.2 µM [inhibitor, partial curve, poor fit]",
CN(C)S(=O)(=O)c1ccc(C(=O)N2CC(=O)Nc3ccc(Br)cc3C2c2ccc(F)cc2)cc1 (stereo unspecified),,inactive: 12.3%
Cc1ccc(-c2cc(-c3ccccc3)[nH]c(=S)c2C#N)cc1,,inactive: 39.3%
O=C(CSc1ncc(-c2ccc(F)cc2)n1Cc1ccco1)Nc1ccc2c(c1)OCO2,"inconclusive: 28.2 µM [inhibitor, single point]",
CCOC(=O)c1cc2c(=O)n3ccccc3nc2n(CCCOC)c1=NC(=O)C(C)Oc1ccccc1 (stereo unspecified),,inactive: 6.36%

SMILES,Potency,"activity, negative = inhibition"
O=C(CCCN1C(=O)c2ccccc2C1=O)NC1=NCCS1,,inactive: 3.77%
O=C1c2ccccc2CN1c1ccccc1,,inactive: -8.67% [at 102 µM]
CSc1nc(SCC(=O)NCc2ccco2)c2c3c(sc2n1)COC(C)(C)C3,"inconclusive: 25.1 µM [inhibitor, single point]",
CCCC(=O)Nc1ccc(C(=O)COC(=O)C2CC2C)cc1 (stereo unspecified),"inconclusive: 7.08 µM [inhibitor, partial curve, poor fit]",
COc1ccc(OC)c(-n2c(-c3ccc(S(C)(=O)=O)cc3)cc(C=O)c2C)c1,"inconclusive: 79.4 µM [inhibitor, single point]",
COc1ccc(C(CNC(=O)COc2ccc(Cl)c(C)c2)N2CCOCC2)cc1 (stereo unspecified),,inactive: -23.7%
COc1ccccc1N1CCN(C(=O)CCS(=O)(=O)c2ccc3c(c2)NC(=O)C(C)S3)CC1 (stereo unspecified),"inconclusive: 44.7 µM [inhibitor, partial curve, poor fit]",
COc1cc2c(cc1NC(=O)c1cccnc1)CCCC2,"inconclusive: 50.1 µM [inhibitor, partial curve, poor fit]",
Cc1ccc(S(=O)(=O)Nc2nc3c(s2)C(=O)CC(C)(C)C3)cc1,active: 50.1 µM,
O=c1cc(N2CCc3ccccc3C2)[nH]c(=O)n1-c1ccccc1Cl,"inconclusive: 39.8 µM [inhibitor, partial curve, poor fit]",
O=C(Nc1ccnn1C1CCN(Cc2cccc(F)c2F)CC1)C1CCCC1,"inconclusive: 5.01 µM [inhibitor, full curve]",
CC(C)=N/N=c1\scc(C)n1Cc1ccco1,,inactive: -49.4% [at 102 µM]
O=C(COC(=O)c1nc(Cl)c(Cl)c(Cl)c1Cl)c1ccc[nH]1,active: 14.1 µM,
Cc1ccc(S(=O)(=O)NC2=NCN(CCc3ccccc3)CN2)cc1,"inconclusive: 0.112 µM [inhibitor, full curve, poor fit]",
O=C(NCc1nnnn1-c1ccc(Cl)cc1)c1ccc(Br)o1,"inconclusive: 79.4 µM [inhibitor, partial curve, poor fit]",
COc1ccc2c(c1OC)c(=O)n1c3ccc(OC(C)C(=O)NCCN4CCOCC4)cc3c3ccnc2c31 (stereo unspecified),"inconclusive: 89.1 µM [inhibitor, single point]",
CS(=O)(=O)N(CC(=O)N1CCN(c2ccccc2)CC1)Cc1ccc(Cl)cc1,"inconclusive: 44.7 µM [inhibitor, partial curve, poor fit]",
CCCCC(=O)NC(=S)Nc1cccc(Cl)c1N1CCCCC1,,inactive: 0.5%
Clc1cccc(-c2ccc(CNCc3ccccn3)o2)c1,active: 20 µM,
COc1ccc(C(=O)NC(=S)Nc2ccc(Cl)c(C(=O)O)c2)cc1,active: 50.1 µM,
CC(=O)Oc1cccc(NC(=O)c2cccc(C(=O)Nc3cccc(OC(C)=O)c3)c2)c1,"inconclusive: 89.1 µM [inhibitor, single point]",
O=C(CN1C(=O)NC2(CCCC2)C1=O)OCc1cc(=O)n2cc(Br)ccc2n1,"inconclusive: 89.1 µM [inhibitor, partial curve, poor fit]",
COc1ccc(C(Nc2cccc([N+](=O)[O-])c2)P(=O)(OC(C)C)OC(C)C)cc1 (stereo unspecified),,inactive: -4.62% [at 102 µM]
Cc1cc(C)cc(NS(=O)(=O)c2ccc3c(c2)NC(=O)C(C)S3)c1 (stereo unspecified),"inconclusive: 11.2 µM [inhibitor, partial curve, poor fit]",

SMILES,Potency,"activity, negative = inhibition"
Cc1ccc(N2CCN(C(=O)Nc3cccc([N+](=O)[O-])c3)CC2C)cc1 (stereo unspecified),"inconclusive: 50.1 µM [inhibitor, partial curve, poor fit]",
Cc1nc2ccccc2n1CCc1nc2c3ccccc3nc(SCC(=O)NCc3ccco3)n2n1,,inconclusive: -75.5% [inhibitor] [at 102 µM]
COc1ccccc1/C=C(/C(=O)OCC(=O)Nc1ccc(N(C)C)cc1)c1ccccc1,active: 10 µM,
CC(=O)N1c2ccc(S(=O)(=O)N3CCCC3)cc2CC1C(=O)NCc1cccc(F)c1 (stereo unspecified),,inactive: 29.4% [at 102 µM]
COc1ccc(-c2c3c(=O)n(C)c(=O)n(C)c3cn2-c2ccccc2O)cc1,"inconclusive: 39.8 µM [inhibitor, single point]",
O=C(Nc1ccccc1)N1CCN(c2cccc(C(F)(F)F)c2)CC1,,inactive: 9.88% [at 102 µM]
Oc1ccc(Nc2nc(-c3ccc4ccccc4c3)cs2)cc1,"inconclusive: 3.16 µM [inhibitor, partial curve, poor fit]",
CC(C)N(Cc1nc(-c2ccccc2)no1)C(=O)c1ccc([N+](=O)[O-])cc1,"inconclusive: 50.1 µM [inhibitor, partial curve, poor fit]",
O=C(OC(C(=O)NCC1CCCO1)c1ccccn1)c1cccs1 (stereo unspecified),"inconclusive: 79.4 µM [inhibitor, single point]",
CCOc1ccc(N2CC(C(=O)N3CCc4ccccc43)CC2=O)cc1 (stereo unspecified),"inconclusive: 63.1 µM [inhibitor, partial curve, poor fit]",
CCOC(=O)C1CCCN(CC(=O)Nc2cccc(C(C)=O)c2)C1 (stereo unspecified),active: 17.8 µM,
Cn1nc([N+](=O)[O-])nc1Oc1ccc(C(C)(C)C)cc1,"inconclusive: 22.4 µM [inhibitor, partial curve, poor fit]",
CN(CC(=O)NCCCc1ccccc1)Cc1ccc(Br)cc1,active: 10 µM,
CN1CCN(S(=O)(=O)c2ccc([N+](=O)[O-])cc2)CC1,,inactive: 1.55%
COc1ccc(NC(=O)C2C3C=CC4(O3)C2C(=O)N(CCCN2CCCCC2)C4C(=O)NC2CCCC(C)C2C)cc1 (stereo unspecified),active: 44.7 µM,
COc1ccc(C(CNC(=O)c2oc3ccc(C)cc3c2C)N2CCOCC2)cc1 (stereo unspecified),,inactive: -8.35%
N#Cc1c(N)oc(-c2ccco2)c1-c1ccco1,active: 44.7 µM,
COc1ccc(OC)c(NC(=O)Cn2c(=O)n(Cc3ccccc3)c(=O)c3ccccc32)c1,,inactive: -22.9%
CCN1CCN(c2ccc(NC(=O)c3cccc4ncccc34)cc2)CC1,,inconclusive: -67.8% [inhibitor]
Cc1ccc(NC(=S)Nc2ccc3cn[nH]c3c2)cc1,"inconclusive: 39.8 µM [inhibitor, single point]",
CC(C)(C)N(Cc1ccccc1)C(=O)COC(=O)CCc1c[nH]c2ccccc12,active: 14.1 µM,
C=CCOC(=O)C(C#N)c1nc2ccccc2nc1N1CCN(c2ccccc2OC)CC1 (stereo unspecified),,inconclusive: -71.3% [inhibitor]
O=C(CN1CCCC1)N1c2ccccc2Sc2ccccc21,"inconclusive: 3.55 µM [inhibitor, partial curve, poor fit]",
